Target: T1, IKKγ(150–272) (UniProt Q9Y6K9 150-272)
T1 chain: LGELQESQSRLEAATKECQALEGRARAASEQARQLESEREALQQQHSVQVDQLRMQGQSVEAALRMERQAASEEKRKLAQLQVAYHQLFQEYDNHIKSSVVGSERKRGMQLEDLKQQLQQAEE
Assay: ITC

B1: WT vFLIP([…]) (domain or fragment)
chain: not shown
Kd: 307 nM
